# Measurements taken from PubChem BioAssay AID485294 (National Center for Advancing Translational Sciences (NCATS), 2010).
# About 150 (0.041%) of roughly 370,000 compounds were called active. The inconclusive results got no clear call from the source; some entries with a clear call stand among them for comparison. Calls come from the whole dose curve; as a rule, active = well fitted inhibition curve with a large enough effect; inconclusive = small, poorly fitted or top-dose-only effect; inactive = flat fitted curve, though single readings scatter. Potencies of inconclusive entries are left out as doubtful fits.
# Molecular target: Beta-lactamase (Escherichia coli (strain K12)) (UniProt P00811)
# Chain of UniProt P00811 (P00811 whole entry, looked up): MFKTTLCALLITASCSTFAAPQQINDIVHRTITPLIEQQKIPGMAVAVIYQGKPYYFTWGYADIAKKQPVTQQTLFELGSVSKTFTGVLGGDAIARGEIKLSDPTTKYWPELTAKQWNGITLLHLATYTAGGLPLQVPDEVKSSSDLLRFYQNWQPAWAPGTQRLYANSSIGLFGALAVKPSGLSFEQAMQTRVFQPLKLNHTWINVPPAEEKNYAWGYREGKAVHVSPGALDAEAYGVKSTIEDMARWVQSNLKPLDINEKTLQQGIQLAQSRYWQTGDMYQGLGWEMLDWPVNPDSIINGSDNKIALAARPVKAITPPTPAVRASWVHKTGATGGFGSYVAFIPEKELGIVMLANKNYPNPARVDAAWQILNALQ
# Assay: qHTS Inhibitors of AmpC Beta-Lactamase (assay with detergent); note: nearly all actives have a fitted effect of over 25% in size;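 for activity change, negative = inhibition: 0% = no-compound wells and -100% = no-enzyme wells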
# Conditions: AmpC hydrolysis of nitrocefin, absorbance 480 nm, 0.01% Triton; activity change, negative = inhibition: at 114 µM (top of the series)
# In short: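 20 mM phosphate pH 7.0 + 0.01% (detergent screen) or 0.0001% Triton X-100; 5.3 nM AmpC reagent; cpd preinc 15 min RT; nitrocefin (800 uM stock) to start; A480 q20 s × 4 min; Activity was normalised to no-enzyme and no-compound control wells.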
# Potency is the fitted concentration of half-maximal effect; tags give direction and shape of the fitted curve.
Compound,Potency,"activity change, negative = inhibition"
CC1CCC(C(C)C)C(OCC[N+](C)(C)C)C1 (stereo not given),"inconclusive [inhibitor, full curve, poor fit]",–
NC(=O)c1cc(-c2ccccc2)sc1NC(=O)Cc1ccc(S(=O)(=O)N2CCOCC2)s1,"inconclusive [inhibitor, single point]",–
CC(=O)N1SC(N)=NC1c1ccccc1 (stereo not given),"inconclusive [inhibitor, partial curve, poor fit]",–
CCOc1ccccc1NC(=O)Nc1cnccn1,–,inactive: -1.05%
Cc1ccc(-c2nc3nc(C)cc(Nc4ccccc4O)n3n2)cc1,"inconclusive [inhibitor, partial curve, poor fit]",–
COc1ccc(-c2cn3nc(C)c(C)nc3n2)cc1OC,"inconclusive [inhibitor, full curve, poor fit]",–
CC(=O)Nc1ccc([C@H]2[C@H](C)CC[C@H]3C(=O)N4[C@@H](CC[C@@H](C)[C@@H]4c4ccc(NC(C)=O)cc4)C(=O)N32)cc1,"inconclusive [inhibitor, partial curve, poor fit]",–
CCN(CC)C(=O)Cn1ncc2c1-c1ccccc1OC2,"inconclusive [inhibitor, single point]",–
CC(C)/C=C/CN1CCN(CCCc2ccccc2)C(CCO)C1 (stereo not given),"inconclusive [inhibitor, partial curve, poor fit]",–
CC1CCCCC1NC(=O)CSc1nc2ccccc2c(=O)n1Cc1ccco1 (stereo not given),"inconclusive [inhibitor, full curve, poor fit]",–
Cc1nc(Cl)cc(N/N=C/c2ccc(O)cc2O)n1,"inconclusive [inhibitor, full curve, poor fit]",–
COC(=O)c1ccccc1NC(=O)COC(=O)c1ccc(C)c(NC(=O)c2ccco2)c1,–,inactive: -18.7%
Cc1ccc(NC(=O)c2sc3ncnc(N4CCN(c5ccccn5)CC4)c3c2C)c(C)c1,–,inactive: -2.87%
O=C(CSc1ncnc2nc[nH]c12)N1CCOCC1,"inconclusive [inhibitor, full curve, poor fit]",–
CCN1CCN(CC(=O)NC2CCCCC2)C(=O)C1=O,"inconclusive [inhibitor, full curve, poor fit]",–
Cc1ccc2oc(=O)n(CCCOc3ccc(Cl)cc3)c2c1,–,inactive: -5.68%
O=C(NCc1ccccn1)c1ccc(COc2ccc(Cl)cc2)o1,"inconclusive [inhibitor, single point]",–
COc1ccc(OC)c(C2=NOC(C(=O)NCCN3CCOCC3)C2)c1 (stereo not given),"inconclusive [inhibitor, full curve]",–
CC(C)CN(C(=O)CSc1nn(-c2ccc(Cl)cc2)c(=S)s1)C1CCS(=O)(=O)C1 (stereo not given),"inconclusive [inhibitor, full curve, poor fit]",–
O=S1(=O)N[C@@H](CC2=CCCCC2)C2CCCCC2O1 (stereo not given in full),"inconclusive [inhibitor, full curve]",–
C/C(CC(=O)Nc1cccc(C(F)(F)F)c1)=N\NC(=O)c1ccncc1,"inconclusive [inhibitor, full curve, poor fit]",–
CCOC(=O)N1CCN(CC(=O)N2c3ccccc3CCc3ccccc32)CC1,"inconclusive [inhibitor, full curve]",–
O=S(=O)(NCc1csc(-c2cccnc2)n1)c1ccc(Cl)s1,"inconclusive [inhibitor, full curve]",–
O=C(COC(=O)CNS(=O)(=O)c1ccc(F)c(F)c1F)Nc1ccc(OC(F)F)cc1,"inconclusive [inhibitor, full curve, poor fit]",–

Compound,Potency,"activity change, negative = inhibition"
O=C(Cc1n[nH]c(=O)c2ccccc12)Nc1cc(Cl)ccc1-n1cncn1,"inconclusive [inhibitor, full curve, poor fit]",–
O=C(NCCOCCn1c(=O)oc2ccccc21)Nc1ccc(Cl)cc1,–,inactive: 16.3%
O=C(O)CNC(=O)CC1S/C(=N/N=C2/NC(=O)CS2)NC1=O (stereo not given),–,inactive: 1.95%
COc1ccc(/C=N/NC(=O)c2cccc(NC(=O)c3ccccc3)c2)c(C(=O)O)c1OC,"inconclusive [inhibitor, full curve]",–
Cc1cc(Br)ccc1SCC(=O)OCC(=O)N1CCN(C(=O)c2ccco2)CC1,"inconclusive [inhibitor, partial curve, poor fit]",–
O=C(CN(CC1CCCO1)C(=O)CCC(=O)Nc1nccs1)NCC1CCCO1 (stereo not given),–,inactive: -17%
CCOC(=O)N1CCc2c(sc3c2c(=O)n(-c2ccc(CC)cc2)c(=O)n3CC(=O)Nc2ccc(C)cc2)C1,–,inactive: -2.68%
O=C(C1CC1)N1CCc2cc(Br)cc(S(=O)(=O)NCC3COc4ccccc4O3)c21 (stereo not given),"inconclusive [inhibitor, full curve, poor fit]",–
Cc1csc(NC(=O)CSc2nc(=O)n(CCCN(C)C)c3c2CCC3)n1,"inconclusive [inhibitor, full curve, poor fit]",–
CC(=O)OCCNc1nc(-c2ccccc2)nc2ccccc12,–,inactive: -7.76%
O=C1NC(=Nc2ccccc2)SC1(CO)CO,"inconclusive [inhibitor, full curve, poor fit]",–
COc1cccc(OC)c1OCCCOc1ccc(C)cc1Br,–,inactive: -15.1%
Clc1cncc(Cl)c1N/N=C/c1ccccc1,"inconclusive [inhibitor, partial curve]",–
COc1ccc(-n2cnnc2SCC(=O)N(C)c2ccccc2)cc1,"inconclusive [inhibitor, full curve]",–
COc1ccc(N2CCC(CNC(=S)Nc3ccc(C)cc3C)C2)cc1 (stereo not given),–,inactive: 7.46%
Cc1ccc(NC(=O)CCOc2ccccc2C)cc1C,"inconclusive [inhibitor, full curve, poor fit]",–
COc1cc(C)ccc1OCCn1c(-c2ccc(Cl)cc2)nc2ccccc2c1=O,–,inactive: 8.56%
COc1ccc2c(CSc3nnc(-c4cccnc4)n3-c3ccccc3F)cc(=O)oc2c1,–,inactive: 0.457%
Cc1ccc(NC(=O)CSc2nnc(C)n2C2CC2)cc1S(=O)(=O)N1CCOCC1,"inconclusive [inhibitor, full curve, poor fit]",–
COc1ccc(CCNC(=O)c2ccc3c(c2)N(Cc2cccc(Cl)c2)C(=O)CS3)cc1OC,–,inactive: -6.8%
O=C(CSc1nnc(-c2ccc3c(c2)OCO3)o1)Nc1ncc(Cl)cc1Cl,–,inactive: -15.4%
COc1ccccc1C(=O)NC(=S)/C=C1/N(C)c2ccccc2C1(C)C,–,inactive: -6.8%
O=C(O)c1ccc(Nc2nc(-c3cc4ccccc4oc3=O)cs2)cc1O,–,inactive: -4.53%
O=C(CCCOc1ccc(Cl)cc1Cl)N1CCCc2ccccc21,"inconclusive [inhibitor, single point]",–

Compound,Potency,"activity change, negative = inhibition"
Cc1ccc(NC(=O)CSCC(=O)N2CCN(C(=O)c3ccco3)CC2)cc1,–,inactive: -16.4%
O=Cc1c(-c2ccccc2)cc2oc3ccccc3cc1-2,–,inactive: -15.7%
O=C(CCn1c(=O)c2sccc2n(Cc2cccc(F)c2)c1=O)NCc1ccc2c(c1)OCO2,–,inactive: 15.9%
CCOC(=O)c1ccccc1-c1cn2cc(Cl)ccc2n1,"inconclusive [inhibitor, full curve]",–
O=C(c1cc(-c2ccc(Cl)c(Cl)c2)on1)N1CCCCC1,"inconclusive [inhibitor, partial curve, poor fit]",–
CCN(CC(=O)Nc1ccc(NC(C)=O)cc1)c1ccc(C(F)(F)F)cn1,"inconclusive [inhibitor, full curve, poor fit]",–
Cc1cc(=O)[nH]c(N/N=C/c2ccc(-c3ccc([N+](=O)[O-])cc3)o2)n1,–,inactive: -8.02%
O=C1CCC(c2ccccc2)=NN1,"inconclusive [inhibitor, single point]",–
Cc1cccc(C)c1NC(=O)Cn1c(=O)n(Cc2ccco2)c(=O)c2ccc(C(=O)NC3CCCC3)cc21,–,inactive: 1.09%
COc1ccc(N2CC(NC(=O)c3ccc4ccccc4c3)CC2=O)cc1OC (stereo not given),"inconclusive [inhibitor, partial curve]",–
O=S(=O)(Nc1nc2ccccc2s1)c1ccc(Br)s1,"inconclusive [inhibitor, single point]",–
CCC(=O)N1CCc2cc(S(=O)(=O)NC(CC(C)C)C(=O)NCc3ccc(F)cc3)ccc21 (stereo not given),–,inactive: -2%
CCc1nc2ccccc2n1CC(=O)N(C(C)CC)C1CCS(=O)(=O)C1 (stereo not given),"inconclusive [inhibitor, full curve]",–
CCOC(=O)CSc1nnc(-c2ccc(S(=O)(=O)N3CCOCC3)cc2)n1-c1ccccc1,–,inactive: -4.16%
Cc1nnc(NC(=O)CSc2nnc(CNC(=O)c3ccccc3)n2-c2ccccc2)s1,"inconclusive [inhibitor, full curve]",–
CC1C(=O)CCN(C(C)(C)C)C1C (stereo not given),"inconclusive [inhibitor, partial curve, poor fit]",–
COC1=CC(=O)O[C@@H](/C=C/c2ccccc2)C1,"inconclusive [inhibitor, full curve, poor fit]",–
Cc1ccc(NC(=O)CS(=O)CC(=O)Nc2ccc(N3CCOCC3)cc2)cc1Cl (stereo not given),"inconclusive [inhibitor, full curve]",–
O=c1/c(=C/c2ccc(O)c([N+](=O)[O-])c2)sc2nc3ccccc3n12,–,inactive: -12.3%
COc1ccc(-c2cn3nc(N4CCCC(C(=O)NCc5ccccc5OC)C4)sc3n2)cc1 (stereo not given),–,inactive: 14.9%
COC(=O)Nc1nnc(-c2ccccc2Cl)s1,"inconclusive [inhibitor, full curve]",–
O=C(O)/C=C/C(=O)c1ccc2c(c1)CCc1ccccc1-2,–,inactive: -6.31%
